Several values for one entry are separate records, joined by “and”; a condition that tells them apart may be missing. Identical values can stand only once. Counter-ions that a name gives are not always drawn. ± gives the standard deviation of the averaged measurements. The full ranking holds about 3,200 compounds; the median of “nuclei count (viability) relative to DMSO” is about 99, and the lowest 2% start at about 16. This is one part of the list.
The compounds below were run on U2OS (assay: nuclei count (viability) relative to DMSO (% of DMSO); higher = more viable cells). Conditions: 10 µM; 24 h.
Procedure: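 Primary image-based screen in U2OS cells: compounds at 10 uM for 24 h, then a 1 h o-propargyl-puromycin (OPP) pulse, click labelling, and high-throughput microscopy. Mean cytoplasmic OPP intensity and nuclei count were normalised to DMSO wells within each plate (DMSO = 100) and averaged over triplicate plates.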

How did the nuclei count turn out when `CC[N+](CC)(CC)CCOc1ccc(/C=C/c2ccccc2)cc1` was run?
The nuclei count was 104.

For `CC(C)c1cc2c(c(O)c1O)[C@@]13CCCC(C)(C)[C@@H]1C[C@@H]2OC3=O` [Carnosol], which nuclei count is on record?
Its nuclei count is 88.

Which nuclei count does the source give for `CC(=O)O[C@H]1CC[C@@]2(C)C(=CC[C@@H]3[C@@H]2CC[C@]2(C)C(c4cccnc4)=CC[C@@H]32)C1` [Abiraterone Acetate (CB7630)] here?
The nuclei count was 105.

`Nc1nc2[nH]cnc2c(=S)[nH]1` [Thioguanine] was tested. Which nuclei count did it give?
The nuclei count was 44.1.

How did the nuclei count turn out when `COc1ccccc1N1CCN(CCN2C(=O)c3ccccc3C(C)(C)C2=O)CC1` [ARC 239 dihydrochloride] was run?
The nuclei count was 103.

With `O=C(OCC(O)CO)c1ccccc1Nc1ccnc2cc(Cl)ccc12` (configuration not stated) [Glafenine hydrochloride] as the compound, how does the nuclei count read?
The nuclei count was 87.5.

How did the nuclei count turn out when `Cc1cc(O)c2c(c1)C(=O)c1cccc(O)c1C2=O` [Chrysophanic acid (Chrysophanol)] was run?
The nuclei count was 92.5 ± 11.

For `NC(=O)c1cn(Cc2c(F)cccc2F)nn1` [Rufinamide (Banzel)], which nuclei count is on record?
The nuclei count was 94.8.

With `COc1cc2c(N3CCN(C(=O)Nc4ccc(OC(C)C)cc4)CC3)ncnc2cc1OCCCN1CCCCC1` [Tandutinib (MLN518)] as the compound, how does the nuclei count read?
The nuclei count was 93.9.

Which nuclei count does the source give for `CC(C(=O)O)c1ccc(-c2ccccc2)c(F)c1` (configuration not stated) [Flurbiprofen (Ansaid)] here?
Its nuclei count is 102.

Which nuclei count does the source give for `CC(C(=O)O)c1ccc(-c2ccccc2)c(F)c1` (configuration not stated) [Flurbiprofen] here?
The nuclei count was 88.2 ± 9.6.

Which nuclei count does the source give for `COc1cc(N)c(Cl)cc1C(=O)OCCCN1CCCCC1` here?
Its nuclei count is 96.6.

With `COc1ccc(CCN(C)CCCN2CCc3cc(OC)c(OC)cc3CC2=O)cc1OC` [Zatebradine hydrochloride] as the compound, how does the nuclei count read?
The nuclei count was 97.4.

How did the nuclei count turn out when `O=c1ccc2cc(O)c(O)cc2o1` [Esculetin] was run?
The nuclei count was 101.

Which nuclei count does the source give for `C[C@H](CCC(=O)O)[C@H]1CC[C@H]2[C@@H]3[C@H](O)C[C@@H]4C[C@H](O)CC[C@]4(C)[C@H]3C[C@H](O)[C@]12C` [Cholic acid] here?
The nuclei count was 105.

Which nuclei count does the source give for `COc1cc(C(=O)NC(=S)Nc2cccc(NC(=O)c3ccccc3)c2)cc(OC)c1OC` here?
Its nuclei count is 101.

Which nuclei count does the source give for `COc1cc([S+](C)[O-])ccc1-c1nc2cccnc2[nH]1` (configuration not stated) [Sulmazole] here?
Its nuclei count is 103.

`NC(N)=NC(N)=Nc1cccc(Cl)c1` [m-Chlorophenylbiguanide hydrochloride] was tested. Which nuclei count did it give?
The nuclei count was 97.9.

With `C[C@H]1O[C@@H](O[C@H]2[C@@H](O)C[C@H](O[C@H]3[C@@H](O)C[C@H](O[C@H]4CC[C@@]5(C)[C@H](CC[C@@H]6[C@@H]5C[C@@H](O)[C@]5(C)[C@@H](C7=CC(=O)OC7)CC[C@]65O)C4)O[C@@H]3C)O[C@@H]2C)C[C@H](O)[C@@H]1O` [Digoxin] as the compound, how does the nuclei count read?
The nuclei count was 14.3.

For `C[C@]12CCC(=O)C=C1CC[C@@H]1[C@@H]2[C@@H](O)C[C@@]2(C)[C@H]1CC[C@]2(O)C(=O)CO` [Hydrocortisone base], which nuclei count is on record?
Its nuclei count is 108.

Which nuclei count does the source give for `C[C@]12CCC(=O)C=C1CC[C@@H]1[C@@H]2[C@@H](O)C[C@@]2(C)[C@H]1CC[C@]2(O)C(=O)CO` [Hydrocortisone (Cortisol)] here?
Its nuclei count is 104.

`CCCCCCC[N+](CC)(CC)CCCCc1ccc(Cl)cc1` [Clofilium tosylate] was tested. Which nuclei count did it give?
Its nuclei count is 99.8.

For `CCOC(=O)C1=C[C@@H](OC(CC)CC)[C@H](NC(C)=O)[C@@H](N)C1` [Oseltamivir phosphate (Tamiflu)], which nuclei count is on record?
Its nuclei count is 81.

For `CNCCCC1c2ccccc2C=Cc2ccccc21` [Protriptyline hydrochloride], which nuclei count is on record?
Its nuclei count is 102.

With `C=C[C@]1(C)C[C@@H](OC(=O)CS[C@@H]2C[C@H]3CC[C@@H](C2)N3C)[C@]2(C)[C@H](C)CC[C@]3(CCC(=O)[C@H]32)[C@@H](C)[C@@H]1O` [Retapamulin] as the compound, how does the nuclei count read?
The nuclei count was 99.4.

For `Oc1ncnc2[nH]ncc12` [Allopurinol], which nuclei count is on record?
The nuclei count was 103.

Which nuclei count does the source give for `Oc1ncnc2[nH]ncc12` [Allopurinol (Zyloprim)] here?
Its nuclei count is 108.

How did the nuclei count turn out when `CC(=O)N(O)[C@@H]1c2cc(C#N)ccc2OC(C)(C)[C@H]1O` was run?
Its nuclei count is 92.8.

`COc1ccccc1C(=O)Nc1cc2c(cc1N1CCCC1)n(C)c(=O)n2C` was tested. Which nuclei count did it give?
The nuclei count was 95.2.

Which nuclei count does the source give for `O=C(CCc1ccc(O)cc1)c1c(O)cc(O)cc1O[C@@H]1O[C@H](CO)[C@@H](O)[C@H](O)[C@H]1O` [Phlorizin (Phloridzin)] here?
The nuclei count was 82.5.

For `COc1ccc(OC)c2c(=S)c3ccccc3[nH]c12`, which nuclei count is on record?
The nuclei count was 74.2.

With `Cc1sc(N)c(C(=O)c2cccc(C(F)(F)F)c2)c1C` as the compound, how does the nuclei count read?
The nuclei count was 107.

With `c1ccc2c(Cc3c[nH]c4ccccc34)c[nH]c2c1` [Diindolylmethane] as the compound, how does the nuclei count read?
Its nuclei count is 84.3.

With `CCC(=O)N1CCN(c2ccc(-n3c(=O)ccc4cnc5ccc(-c6cnc7ccccc7c6)cc5c43)cc2C(F)(F)F)CC1` [Torin 1] as the compound, how does the nuclei count read?
Its nuclei count is 80.4.

For `CO/N=C(\C(=O)N[C@@H]1C(=O)N2C(C(=O)OCOC(=O)C(C)(C)C)=C(/C=C\c3scnc3C)CS[C@H]12)c1csc(N)n1` [Cefditoren pivoxil], which nuclei count is on record?
The nuclei count was 94.5.

For `COc1ccc(-n2[nH]c3c4c(ncc3c2=O)CCCCC4)cc1`, which nuclei count is on record?
Its nuclei count is 99.9.

`C[N+]1(CCCCC[N+]2(C)CCCC2)CCCC1` [Pentolinium bitartrate] was tested. Which nuclei count did it give?
The nuclei count was 109.

For `C=C1C(=O)O[C@@H]2/C=C(\C)CC/C=C(\C)CC[C@@H]12` [Costunolide], which nuclei count is on record?
The nuclei count was 73 ± 23.

Which nuclei count does the source give for `O=C(Nc1ccccc1)c1cc([N+](=O)[O-])ccc1Cl` here?
The nuclei count was 91.9 and 96.1.

`COc1ccc(CCN(C)CCCC(C#N)(c2ccc(OC)c(OC)c2)C(C)C)cc1OC` (configuration not stated) [Verapamil hydrochloride] was tested. Which nuclei count did it give?
Its nuclei count is 105.

Which nuclei count does the source give for `Cc1onc(-c2ccccc2)c1-c1ccc(S(N)(=O)=O)cc1` [Valdecoxib] here?
Its nuclei count is 101.

Which nuclei count does the source give for `CCCc1cc(=O)[nH]c(=S)[nH]1` [Propylthiouracil] here?
Its nuclei count is 104.

Which nuclei count does the source give for `O=C(O)c1cc(O)c2c(c1)C(=O)c1cccc(O)c1C2=O` [Rhein (Monorhein)] here?
Its nuclei count is 104.

Which nuclei count does the source give for `Cc1ccc(Nc2c(F)cccc2Cl)c(CC(=O)O)c1` [Lumiracoxib (COX-189)] here?
Its nuclei count is 103.

Which nuclei count does the source give for `O=c1cc(-c2cccc3c2Sc2ccccc2S3)oc(N2CCOCC2)c1` here?
Its nuclei count is 84.9 and 97.4.

With `Oc1ccc([C@H]2COc3cc(O)ccc3C2)cc1` [Equol] as the compound, how does the nuclei count read?
Its nuclei count is 100.

`Fc1ccc(C(c2ccc(F)cc2)N2CCN(C/C=C/c3ccccc3)CC2)cc1` [Flunarizine dihydrochloride] was tested. Which nuclei count did it give?
The nuclei count was 100 ± 3.

Which nuclei count does the source give for `N=C(N)c1ccc(OCCCCCOc2ccc(C(=N)N)cc2)cc1` [Pentamidine isethionate] here?
Its nuclei count is 94.9.

`N=C(N)c1ccc(OCCCCCOc2ccc(C(=N)N)cc2)cc1` [Pentamidine] was tested. Which nuclei count did it give?
Its nuclei count is 102.

`N=C(N)SCCc1ccc(OCc2ccc([N+](=O)[O-])cc2)cc1` [KB-R7943 mesylate] was tested. Which nuclei count did it give?
The nuclei count was 96.4.

`CCCCC(=O)O[C@H]1CC[C@H]2[C@@H]3CCc4cc(O)ccc4[C@H]3CC[C@]12C` [Estradiol Valerate] was tested. Which nuclei count did it give?
The nuclei count was 103.

Which nuclei count does the source give for `CCCCC(=O)O[C@H]1CC[C@H]2[C@@H]3CCc4cc(O)ccc4[C@H]3CC[C@]12C` [Estradiol valerate] here?
The nuclei count was 101.

Which nuclei count does the source give for `O=[N+]([O-])c1ccccc1S(=O)(=O)NCC1CCC(CNCC2CCc3ccccc3C2)CC1` (configuration not stated) [NTNCB hydrochloride] here?
The nuclei count was 86.9.

Which nuclei count does the source give for `N#Cc1c(O)c2c(-c3ccc(-c4ccccc4O)cc3)csc2[nH]c1=O` here?
The nuclei count was 105 and 91.5.

With `COc1cccc2c1C(=O)c1c(O)c3c(c(O)c1C2=O)C[C@@](O)(C(=O)CO)C[C@@H]3O[C@H]1C[C@H](N)[C@H](O)[C@H](C)O1` [Doxorubicin (Adriamycin)] as the compound, how does the nuclei count read?
The nuclei count was 12.7.

Which nuclei count does the source give for `COc1cccc2c1C(=O)c1c(O)c3c(c(O)c1C2=O)C[C@@](O)(C(=O)CO)C[C@@H]3O[C@H]1C[C@H](N)[C@H](O)[C@H](C)O1` [Doxorubicin hydrochloride] here?
Its nuclei count is 13 ± 0.18.

With `CCC(=O)O[C@@H](O[P@](=O)(CCCCc1ccccc1)CC(=O)N1C[C@H](C2CCCCC2)C[C@H]1C(=O)O)C(C)C` [Fosinopril sodium (Monopril)] as the compound, how does the nuclei count read?
The nuclei count was 103.

Which nuclei count does the source give for `CCC(=O)O[C@@H](O[P@](=O)(CCCCc1ccccc1)CC(=O)N1C[C@H](C2CCCCC2)C[C@H]1C(=O)O)C(C)C` [Fosinopril] here?
The nuclei count was 113.

For `CC(C)N1Cc2cc(S(C)(=O)=O)ccc2N(CCN2CC=C(c3c[nH]c4cc(F)ccc34)CC2)S1(=O)=O`, which nuclei count is on record?
Its nuclei count is 111.

For `COc1cc(-c2cn(C)c(=O)c3cnccc23)c(OC)cc1CN(C)C`, which nuclei count is on record?
Its nuclei count is 110.

How did the nuclei count turn out when `CC1(C)S[C@@H]2[C@H](NC(=O)[C@H](N)c3ccc(O)cc3)C(=O)N2[C@H]1C(=O)O` [Amoxicillin sodium (Amox)] was run?
The nuclei count was 110.

`CC1(C)S[C@@H]2[C@H](NC(=O)[C@H](N)c3ccc(O)cc3)C(=O)N2[C@H]1C(=O)O` [Amoxicillin] was tested. Which nuclei count did it give?
Its nuclei count is 100.

`CC1(C)S[C@@H]2[C@H](NC(=O)[C@H](N)c3ccc(O)cc3)C(=O)N2[C@H]1C(=O)O` [Amoxicillin (Amoxycillin)] was tested. Which nuclei count did it give?
The nuclei count was 103.

How did the nuclei count turn out when `Cc1cc(C(=O)NOCCO)c(Nc2ccc(I)cc2F)n(C)c1=O` was run?
The nuclei count was 96.7.

How did the nuclei count turn out when `Cn1cnc2c(NCc3ccccc3)nc(NCCO)nc21` [Olomoucine] was run?
Its nuclei count is 97.3.

`OCCOCCN1CCN(C2=Nc3ccccc3Sc3ccccc32)CC1` [Quetiapine hemifumarate] was tested. Which nuclei count did it give?
The nuclei count was 95.

How did the nuclei count turn out when `Nc1nc(Cl)nc2c1ncn2[C@H]1C[C@H](O)[C@@H](CO)O1` [Cladribine] was run?
The nuclei count was 57.3.

Which nuclei count does the source give for `CN[C@@H]1[C@H](O[C@H]2[C@H](O[C@H]3[C@H](O)[C@@H](O)[C@H](N=C(N)N)[C@@H](O)[C@@H]3N=C(N)N)O[C@@H](C)[C@]2(O)C=O)O[C@@H](CO)[C@H](O)[C@H]1O` [Streptomycin sulfate] here?
The nuclei count was 102 ± 1.6.

How did the nuclei count turn out when `N=C(N)NC(=N)Nc1ccccc1` [1-Phenylbiguanide hydrochloride] was run?
The nuclei count was 95.6.

For `NCCNC(=O)c1ccc(Cl)cn1` [Lazabemide hydrochloride], which nuclei count is on record?
The nuclei count was 103.

`O=C([C@@H](Cc1cccc(C(F)(F)F)c1)NS(=O)(=O)c1cc(F)c2c(c1)CCNC2)N1CCCC1` was tested. Which nuclei count did it give?
Its nuclei count is 103.

How did the nuclei count turn out when `CCn1c2ccccc2c2cc(Nc3ccnc(NCCCN4CCOCC4)n3)ccc21` was run?
The nuclei count was 68.9.

From the supplement of paper PMC8183993
